Structures are written as SMILES. Screen size: about 310,000 compounds; about 14,000 (4.5%) showed an effect of 50% or more. The effect is printed as a negative number. The list shows a part of the results.
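Further: peak tail current of the secondary pulse compared with the same well before compound.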

In this assay the target is human ether-à-go-go-related gene (hERG) potassium channel (human, UniProt Q12809). The assay can be described thus: primary screen, population patch clamp on CHO cells stably expressing hERG.
Sequence of human ether-à-go-go-related gene (hERG) potassium channel (Q12809 whole entry, looked up): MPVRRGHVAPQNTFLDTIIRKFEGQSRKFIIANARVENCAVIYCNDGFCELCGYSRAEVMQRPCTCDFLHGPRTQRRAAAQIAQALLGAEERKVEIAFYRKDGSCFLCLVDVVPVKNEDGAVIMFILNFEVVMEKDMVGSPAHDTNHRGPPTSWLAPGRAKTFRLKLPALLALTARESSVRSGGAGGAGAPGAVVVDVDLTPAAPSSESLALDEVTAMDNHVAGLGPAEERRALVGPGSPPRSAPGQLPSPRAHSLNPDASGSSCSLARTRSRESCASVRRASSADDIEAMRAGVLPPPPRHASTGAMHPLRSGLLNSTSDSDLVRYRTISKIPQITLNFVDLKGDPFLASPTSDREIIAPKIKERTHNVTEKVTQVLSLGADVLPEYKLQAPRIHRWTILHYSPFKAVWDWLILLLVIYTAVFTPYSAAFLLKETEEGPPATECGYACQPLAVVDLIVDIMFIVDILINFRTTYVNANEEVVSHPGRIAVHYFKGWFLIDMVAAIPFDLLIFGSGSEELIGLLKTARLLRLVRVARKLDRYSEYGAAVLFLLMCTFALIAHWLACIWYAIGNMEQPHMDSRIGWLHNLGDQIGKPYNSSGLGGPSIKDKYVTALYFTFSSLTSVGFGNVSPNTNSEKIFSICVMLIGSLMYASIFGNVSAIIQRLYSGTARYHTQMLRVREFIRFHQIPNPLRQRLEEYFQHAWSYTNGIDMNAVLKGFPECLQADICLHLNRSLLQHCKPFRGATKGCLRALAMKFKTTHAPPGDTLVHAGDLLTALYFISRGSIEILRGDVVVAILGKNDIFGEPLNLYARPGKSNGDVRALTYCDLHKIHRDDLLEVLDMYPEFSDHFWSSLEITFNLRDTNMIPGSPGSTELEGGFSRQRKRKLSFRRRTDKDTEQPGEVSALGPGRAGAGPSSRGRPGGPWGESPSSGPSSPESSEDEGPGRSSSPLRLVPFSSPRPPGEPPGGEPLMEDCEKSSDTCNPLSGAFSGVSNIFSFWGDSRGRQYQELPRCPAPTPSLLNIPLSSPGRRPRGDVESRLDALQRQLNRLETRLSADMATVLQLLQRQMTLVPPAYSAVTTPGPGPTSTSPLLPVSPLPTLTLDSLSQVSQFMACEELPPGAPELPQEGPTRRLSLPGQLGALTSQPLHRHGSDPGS
Consider `N/C(=N\NC(=O)c1ccc(F)cc1)c1cc2ccccc2oc1=O`, for which the “hERG current change (%, negative = inhibition) at 10uM” value is -6.66%.

Take `O=[N+]([O-])c1ccc(N(CCO)Cc2ccccc2)c([N+](=O)[O-])c1`: the “hERG current change (%, negative = inhibition) at 10uM” value is -11.9%.

Consider `C=CCn1c(Cc2ccc(OC)cc2)nnc1SCC(=O)NCCc1ccccc1`, for which the “hERG current change (%, negative = inhibition) at 10uM” value is given as -39.2%.

`C=CCOc1ccc(/C(O)=C2\C(=O)C(=O)N(CCCOC)C2c2ccc(O)c(OC)c2)cc1` (stereo not shown): the “hERG current change (%, negative = inhibition) at 10uM” value amounted to 21.1%.

For `CN(C)C(=O)c1ccc2c(c1)n(C)c(=O)n2C`, the “hERG current change (%, negative = inhibition) at 10uM” value amounted to 4.88%.

As to `Cc1onc(-c2ccccc2Cl)c1C(=O)NCc1cccs1`, the “hERG current change (%, negative = inhibition) at 10uM” value is on record as -4.95%.

On to `O=[N+]([O-])c1ccccc1OCC(O)CN1CCN(CC(O)COc2ccccc2[N+](=O)[O-])CC1` (stereo not shown), for which the “hERG current change (%, negative = inhibition) at 10uM” value is -60.2%.

On to `O=S(=O)(NCc1cccnc1)c1cc(Cl)ccc1Cl`, for which the “hERG current change (%, negative = inhibition) at 10uM” value turned out to be 16.6%.

As for `N#Cc1ccc(S(=O)(=O)N2CCC(C(=O)Nc3cccc(C(=O)NC4CC4)c3)CC2)cc1`, the “hERG current change (%, negative = inhibition) at 10uM” value came out at 0.719%.

For the compound `CCOC(=O)C1C2C=CC3(CN(Cc4ccco4)C(=O)C13)O2` (stereo not shown), the “hERG current change (%, negative = inhibition) at 10uM” value turned out to be 16.2%.

Consider `Cc1nnc(C)n1/N=C/c1c(O)ccc2ccccc12`, for which the “hERG current change (%, negative = inhibition) at 10uM” value came out at 4.67%.

As for `Cc1c(NC(=O)c2c(NC(=O)CNC3CC3)sc3c2CCCC3)c(=O)n(-c2ccccc2)n1C.O=C(O)C(=O)O`, the “hERG current change (%, negative = inhibition) at 10uM” value was -35.4%.

As to `COC(=O)c1ccsc1NC(=O)CS(=O)(=O)c1ccccc1`, the “hERG current change (%, negative = inhibition) at 10uM” value is -10.1%.

In the case of `CN(Cc1cccs1)CC(O)COCc1ccco1` (stereo not shown), the “hERG current change (%, negative = inhibition) at 10uM” value is given as -16.3%.

In the case of `Cc1cccc([C@@H]2[C@@H]3C(=O)N(C)C(=O)[C@@H]3[C@@H]3C(=O)Nc4ccccc4C(=O)N23)c1`, the “hERG current change (%, negative = inhibition) at 10uM” value was -5.35%.

For `COc1cccc(CNC(=O)CCC2CCCN(C(=O)c3cc(C)[nH]n3)C2)c1` (stereo not shown), the “hERG current change (%, negative = inhibition) at 10uM” value was found to be 31.9%.

Take `COc1ccc(CCC(=O)N2c3ccccc3CC2C)cc1` (stereo not shown): the “hERG current change (%, negative = inhibition) at 10uM” value was found to be 1.56%.

Turning to `Cc1ccc(NS(=O)(=O)c2ccc(NC(=O)c3cccs3)cc2)cc1`, the “hERG current change (%, negative = inhibition) at 10uM” value is 13%.

Turning to `O=C(NCCN1CCCCC1)c1ccco1`, the “hERG current change (%, negative = inhibition) at 10uM” value is on record as 7.02%.

With `COC(=O)c1[nH]c2cccc(OC)c2c1NC(=O)CN1CCN(c2cccc(OC)c2)C(C)C1` (stereo not shown), the “hERG current change (%, negative = inhibition) at 10uM” value was 10.7%.

For the compound `CCN(CC)CCN(C(=O)CN1C(=O)CCC1=O)c1nc2cc3c(cc2s1)OCO3.Cl`, the “hERG current change (%, negative = inhibition) at 10uM” value is -20.9%.

On to `O=C(NCCCN1CCOCC1)C1CC(=O)N(c2ccccc2)C1` (stereo not shown), for which the “hERG current change (%, negative = inhibition) at 10uM” value turned out to be 12.1%.

Take `Cc1ccccc1S(=O)(=O)Cc1ccc(C(=O)NCCN(C)Cc2ccccc2)o1`: the “hERG current change (%, negative = inhibition) at 10uM” value is -48.5%.

As to `CCOC(=O)CCc1c(C)c2c(C)nn(-c3ccccc3)c2[nH]c1=O`, the “hERG current change (%, negative = inhibition) at 10uM” value is -15.9%.

Turning to `CN1CCN(C(=O)c2cc(COc3ccc(F)cc3Cl)on2)CC1c1ccccc1` (stereo not shown), the “hERG current change (%, negative = inhibition) at 10uM” value is recorded as -5.66%.

In the case of `CCOCc1nnc(NC(=O)CS(=O)(=O)c2ccc(C)cc2)s1`, the “hERG current change (%, negative = inhibition) at 10uM” value turned out to be 6.62%.

Take `CC(=O)N(C)CC#CCN1CCC(O)CC1`: the “hERG current change (%, negative = inhibition) at 10uM” value turned out to be 6.31%.

Regarding `N#CC1=C(N)Oc2n[nH]c(-c3ccccc3)c2C1c1cccc(OC(=O)N2CCOCC2)c1` (stereo not shown), the “hERG current change (%, negative = inhibition) at 10uM” value was -5.44%.

With `Cn1c(=O)n(C)c2cc(/C=N/NC(=O)c3ccncc3)ccc21`, the “hERG current change (%, negative = inhibition) at 10uM” value is 5.41%.

Consider `O=c1c2cc3c(=O)n(-c4ccccc4O)c(=O)c3cc2c(=O)n1-c1ccccc1O`, for which the “hERG current change (%, negative = inhibition) at 10uM” value is given as 16.9%.

For the compound `Cc1c(C)c2c(OCC(=O)N[C@@H](Cc3ccccc3)C(=O)O)cc3c(c2oc1=O)CCC(C)(C)O3`, the “hERG current change (%, negative = inhibition) at 10uM” value is recorded as -0.584%.

Regarding `CCOc1ccc(C(=O)NCC2OCCc3ccccc32)cc1` (stereo not shown), the “hERG current change (%, negative = inhibition) at 10uM” value is -8.57%.

On to `O=C(Nc1ccccc1)c1cnc2ccccc2n1`, for which the “hERG current change (%, negative = inhibition) at 10uM” value is -8.27%.

Consider `COc1ccc(C(C(=O)NCC2CCCO2)N(C(=O)Cn2nnc3ccccc32)c2ccc(NC(C)=O)cc2)cc1` (stereo not shown), for which the “hERG current change (%, negative = inhibition) at 10uM” value was found to be 14.6%.

For the compound `O=C(CSC1=NCCS1)N1CCN(c2ccccc2)CC1`, the “hERG current change (%, negative = inhibition) at 10uM” value is reported as -8.5%.

For the compound `N#CCSc1ncnc2sc3c(c12)CCC3`, the “hERG current change (%, negative = inhibition) at 10uM” value is recorded as 9.43%.

Consider `C=CCNC(=O)NC(=O)c1csc([N+](=O)[O-])c1`, for which the “hERG current change (%, negative = inhibition) at 10uM” value worked out at 5.83%.

`O=C(NCCc1nc2ccccc2[nH]1)c1cc([N+](=O)[O-])cc([N+](=O)[O-])c1`: the “hERG current change (%, negative = inhibition) at 10uM” value was -8.57%.

In the case of `CCOCCCNC(=O)c1cc2c(=O)n3cccc(C)c3nc2n1C`, the “hERG current change (%, negative = inhibition) at 10uM” value was determined as 12.4%.

On to `COc1ccccc1NC(=O)CCSc1ccc(C)cc1`, for which the “hERG current change (%, negative = inhibition) at 10uM” value is recorded as -13.8%.

As to `CCCOc1cccc(-c2nn(-c3ccccc3)cc2/C=C(\C#N)C(=O)NCCCn2ccnc2)c1`, the “hERG current change (%, negative = inhibition) at 10uM” value is recorded as -13.7%.

Consider `C=CCn1c(CSCc2ccccc2)nnc1SCC(=O)NCc1ccccc1`, for which the “hERG current change (%, negative = inhibition) at 10uM” value is -18%.

For the compound `CC(=O)c1cccc(NC(=O)c2cc(C)no2)c1`, the “hERG current change (%, negative = inhibition) at 10uM” value is -1.59%.

These data come from article PMC4336329 (PLoS ONE, 2015).
